# This is one part of the list.
# Tests used:
# HSkMC = human skeletal muscle cells; experiment: cytotoxicity call (relative viability < 0.9); conditions: 10 µM
# HepG2 = experiment: cytotoxicity call (relative viability < 0.9); conditions: 10 µM
# S. aureus RN4220 = experiment: growth inhibition call (relative growth <= 0.2); conditions: 50 µM
Structure (SMILES),cytotoxicity call (HSkMC),cytotoxicity call (HepG2),growth inhibition call (S. aureus RN4220)
C[C@H](CO)N1C[C@H](C)[C@H](CN(C)S(=O)(=O)c2cn(C)cn2)Oc2ccc(NC(=O)Nc3ccccc3)cc2CC1=O,inactive,active,inactive
C[C@@H]1CCCCO[C@H](CN(C)C(=O)Nc2ccc(C(F)(F)F)cc2)[C@H](C)CN([C@H](C)CO)C(=O)c2cc(N(C)C)ccc2O1,inactive,inactive,inactive
CCCCCCCCCCCCCCCCCCOCC(O)CO (configuration not stated),inactive,inactive,inactive
NCCNCCNCCNCCN,inactive,inactive,inactive
C[C@H](CO)N1C[C@H](C)[C@@H](CN(C)S(=O)(=O)c2ccc(Oc3ccccc3)nc2)OCc2cnnn2CCCC1=O,inactive,inactive,inactive
C[C@@H]1CCCCO[C@H](CN(C)S(=O)(=O)c2ccc(F)cc2)[C@@H](C)CN([C@@H](C)CO)C(=O)c2cc(NC(=O)Nc3cccc4ccccc34)ccc2O1,inactive,inactive,inactive
Cc1ccc(S(=O)(=O)Nc2ccc3c(c2)C(=O)N([C@@H](C)CO)C[C@H](C)[C@H](CN(C)C(=O)NC2CCCCC2)OCCCC[C@@H](C)O3)cc1,inactive,inactive,inactive
CCCc1nc2c(C)cc(-c3nc4ccccc4n3C)cc2n1Cc1ccc(-c2ccccc2C(=O)O)cc1,inactive,inactive,inactive
CC(C)NC(=O)N(C)C[C@H]1OCCCC[C@@H](C)Oc2ccc(NS(=O)(=O)c3cn(C)cn3)cc2C(=O)N([C@H](C)CO)C[C@H]1C,inactive,inactive,inactive
COc1ccc(S(=O)(=O)N(C)C[C@@H]2OCCCC[C@@H](C)Oc3ccc(NC(=O)CCCCCC(=O)Nc4ccccc4N)cc3C(=O)N([C@H](C)CO)C[C@@H]2C)cc1,inactive,inactive,inactive
COc1ccc(S(=O)(=O)N(C)C[C@H]2Oc3ccc(NC(=O)CCCN(C)C)cc3C(=O)N([C@@H](C)CO)C[C@H]2C)cc1,inactive,inactive,inactive
CN1CCN(C(=O)C[C@@H]2C=C[C@H](NC(=O)Cc3ccccn3)[C@H](CO)O2)CC1,inactive,inactive,inactive
COc1ccc(S(=O)(=O)Nc2cccc3c2O[C@H](CN(C)Cc2ccc(Cl)c(Cl)c2)[C@@H](C)CN([C@@H](C)CO)C3=O)cc1,inactive,inactive,inactive
C[C@H]1CN([C@@H](C)CO)C(=O)Cc2cc(NC(=O)Nc3ccccc3)ccc2O[C@H]1CN(C)Cc1ccc(C(F)(F)F)cc1,active,active,inactive
CN1CCN(C(=O)C[C@H]2CC[C@@H]3[C@H](COC[C@@H](O)CN3C(=O)C3CC3)O2)CC1,inactive,inactive,inactive
Cc1ccc(S(=O)(=O)N(C)C[C@H]2Oc3ccc(NS(=O)(=O)c4ccc(F)cc4)cc3C(=O)N([C@@H](C)CO)C[C@H]2C)cc1,inactive,inactive,inactive
NCCC(=O)N[C@@H](Cc1cnc[nH]1)C(=O)O.[Zn+3],inactive,inactive,inactive
C=CCc1ccc(O)c(OC)c1,inactive,inactive,active
CN(C)CCCNC(=O)C[C@@H]1CC[C@@H]2[C@@H](COc3ccc(NC(=O)c4ccccc4F)cc3C(=O)N2C)O1,inactive,inactive,inactive
CCCN1C[C@H](C)[C@H](OC)CN(C)C(=O)c2ccc(NS(=O)(=O)c3cn(C)cn3)cc2OC[C@H]1C,inactive,inactive,inactive
C[C@@H]1CN([C@H](C)CO)S(=O)(=O)c2ccc(C#CC3CCCC3)cc2O[C@@H]1CN(C)C(=O)Cc1ccncc1,inactive,inactive,inactive
COc1cccc(C#Cc2ccc([C@@H]3[C@H](CO)N4C(=O)CN(S(=O)(=O)c5ccccc5C)C[C@@H]34)cc2)c1,inactive,inactive,inactive
C[C@@H]1CN([C@@H](C)CO)C(=O)c2cc(C#Cc3ccc(F)cc3)cnc2O[C@H]1CN(C)Cc1ccccn1,inactive,inactive,inactive
COc1ccc(S(=O)(=O)N[C@@H]2C=C[C@@H](CC(=O)N3CCN(c4ccccc4)CC3)O[C@@H]2CO)cc1,inactive,inactive,inactive
Cc1noc(C)c1NC(=O)N(C)C[C@@H]1Oc2ccc(NS(C)(=O)=O)cc2CC(=O)N([C@@H](C)CO)C[C@H]1C,inactive,inactive,inactive
NS(=O)(=O)c1cc2c(cc1Cl)NC(C1CC3C=CC1C3)NS2(=O)=O (configuration not stated),inactive,inactive,inactive
NC(=O)NC1NC(=O)NC1=O (configuration not stated),inactive,inactive,inactive
C[C@@H]1CCCCO[C@H](CN(C)C(=O)Nc2ccc(C(F)(F)F)cc2)[C@H](C)CN([C@@H](C)CO)C(=O)c2cc(NS(=O)(=O)c3cn(C)cn3)ccc2O1,inactive,inactive,inactive
C[C@@H]1CN([C@@H](C)CO)C(=O)c2cc(NS(=O)(=O)c3ccc(F)cc3)ccc2O[C@H]1CN(C)S(C)(=O)=O,inactive,inactive,inactive
